In PubChem BioAssay AID686978 (National Center for Advancing Translational Sciences (NCATS), 2013):
Screen size: about 420,000 compounds; about 64,000 (15%) were called active. This list was built around the results that the source calls inconclusive (neither active nor inactive); the mix of calls is not that of the screen. Calls follow the shape of the dose curve; as a rule, active = well fitted inhibition curve with a large enough effect; inconclusive = small, poorly fitted or top-dose-only effect; inactive = flat fitted curve, though single readings scatter. Potencies of inconclusive entries are left out as doubtful fits.

Experiment: qHTS for Inhibitors of human tyrosyl-DNA phosphodiesterase 1 (TDP1): qHTS in cells in absence of CPT; also: nearly all actives have a fitted effect of over 55% in size
Details: DT40 Tdp1-/- hTDP1 cells, no CPT, ATP luminescence, 48 h; activity change, negative = growth inhibition: at 46.2 µM (top of the series) unless noted
Procedure, shortened: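 Luminescent ATP content (CellTiter-Glo) served as the growth readout. Knockout chicken DT40 cells expressing human TDP1 were exposed to compounds without camptothecin for a minimum 48 hr at 37 °C.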
% is scaled to controls: 0 for no effect and ±100 for the full control effect; potency is read from the fitted curve at half-maximal effect; tags tell the direction and shape of the fitted curve.

With COc1cc(CN2CCC(N3CCC(C(=O)N4CCCC4)CC3)CC2)cc2c1OCO2 as the compound, how does the Potency read?
The Potency was inconclusive [inhibitor, partial curve, poor fit].

Which Potency does the source give for CCC1=Nc2cc(C(=O)NCCCOC)ccc2Sc2ccccc21 here?
Its Potency is active: 1.16 µM.

With CCOc1ccc(NC(=O)Nc2cccs2)cc1 as the compound, how does the Potency read?
The Potency was active: 18.4 µM.

For S=C(NCc1cccnc1)Nc1cccc2ccccc12, which Potency is on record?
Its Potency is inconclusive [inhibitor, single point].

Which Potency does the source give for COc1ccccc1OCc1ccc(C(=O)N2CCCCC2)o1 here?
Its Potency is “inactive”.

With Nc1nc(=S)c2ncn(C3OC(CO)CC3O)c2[nH]1 (stereo unspecified) as the compound, how does the Potency read?
The Potency was active: 11.6 µM.

With OCc1nc2ccccc2[nH]1 as the compound, how does the Potency read?
The Potency was “inactive”.

Which Potency does the source give for COc1cc(-c2nc3cnccn3c2Nc2c(C)cccc2C)ccc1O here?
The Potency was inconclusive [inhibitor, partial curve].

With O=C(CSC1=NCCS1)N1CCOCC1 as the compound, how does the Potency read?
The Potency was “inactive”.

For Cc1ccccc1Nc1nc(N)nc(COC(=O)[C@@H](NC(=O)c2c(F)cccc2F)C(C)C)n1, which Potency is on record?
Its Potency is inconclusive [inhibitor, single point].

With Cc1cccc(N2CCN(C(=O)C3CCN(S(=O)(=O)c4c(C)noc4/C=C/c4ccccc4F)CC3)CC2)c1C as the compound, how does the Potency read?
Its Potency is inconclusive [inhibitor, partial curve].

For Cc1ccccc1C(=O)N=c1sccn1C, which Potency is on record?
Its Potency is active: 3.26 µM.

For O=C(CSc1nnc(Cc2cccs2)n1-c1ccccc1)NC1CCCCC1, which Potency is on record?
The Potency was inconclusive [inhibitor, partial curve].

For CC(C)NC(=O)N1CCC2(CC1)CCN(C(=O)c1cccn1C)CC2, which Potency is on record?
The Potency was “inactive”.

For Cc1ccc(NC2(c3nnnn3-c3c(C)cccc3C)CCCCC2)cc1, which Potency is on record?
The Potency was active: 23.1 µM.

With COc1cc(OC)c(N(C)S(=O)(=O)c2cccc(C(=O)NCc3cccs3)c2)cc1Cl as the compound, how does the Potency read?
Its Potency is inconclusive [inhibitor, single point].

For COc1ccc2c(C)cc(SCc3c(C)noc3C)nc2c1, which Potency is on record?
The Potency was inconclusive [inhibitor, single point].

For O=C(NC1CCCCC1)[C@@H]1CC=C[C@@H]2CCN(Cc3ccc(Cl)c(Cl)c3)C(=O)[C@@H]21, which Potency is on record?
Its Potency is inconclusive [inhibitor, partial curve, poor fit].

For CCN1CCc2nc(N)sc2C1, which Potency is on record?
Its Potency is active: 29.1 µM.

With CCN1CCN(C(=O)c2ccc3c(=O)n(CCC4=CCCCC4)c(=O)[nH]c3c2)CC1 as the compound, how does the Potency read?
Its Potency is inconclusive [inhibitor, single point].

Which Potency does the source give for COc1ccc(-n2ncc3c(N(C)C4CCCCC4)ncnc32)cc1 here?
Its Potency is inconclusive [inhibitor, single point].

With COc1ccc(NC(=O)c2ccc(S(=O)(=O)NCc3cccnc3)cc2)cc1 as the compound, how does the Potency read?
Its Potency is inconclusive [inhibitor, single point].

With CC(=O)c1cccc(OCc2cc(C(=O)NCCC3=CCCCC3)no2)c1 as the compound, how does the Potency read?
Its Potency is inconclusive [inhibitor, partial curve].

For CC(C)[C@@H](C(=O)N1CCN(C(=O)OC(C)(C)C)CC1)n1cc(CCO)nn1, which Potency is on record?
Its Potency is “inactive”.

For Cc1ccc2oc(-c3cc(NC(=O)c4ncn[nH]4)ccc3O)nc2c1, which Potency is on record?
The Potency was inconclusive [inhibitor, single point].

Which activity change, negative = growth inhibition does the source give for CC(=O)c1ccc(S(=O)(=O)N2CCN(CCOc3ccccc3)CC2)cc1 here?
The activity change, negative = growth inhibition was inconclusive: -34% [inhibitor].

With CCOC(=O)c1c(Nc2cccc(O)c2)nnc(-c2ccccc2)c1-c1ccccc1 as the compound, how does the Potency read?
The Potency was active: 23.1 µM.

For Cc1cc(C(=O)Cn2ncc(Cl)c(Cl)c2=O)c(C)n1CC(F)(F)F, which Potency is on record?
The Potency was active: 3.66 µM.

With Cc1ccsc1/C=N/NC(=O)c1c[nH]c2ccccc12 as the compound, how does the Potency read?
Its Potency is inconclusive [inhibitor, single point].

Which Potency does the source give for O=C(COC(=O)Cn1ccc(=O)[nH]c1=O)Nc1ccc(F)cc1 here?
Its Potency is “inactive”.

Which Potency does the source give for Cc1ccc(S(=O)(=O)N(CC(=O)N/N=C/c2ccc(F)cc2)c2cccc3cccnc23)cc1 here?
The Potency was inconclusive [inhibitor, single point].

For COc1ccc(Cl)cc1NC(=O)Cn1nnc2sc3c(c2c1=O)CCC(C(C)(C)C)C3 (stereo unspecified), which Potency is on record?
The Potency was inconclusive [inhibitor, partial curve].

Which Potency does the source give for CCc1cccc(C)c1NS(=O)(=O)c1c(C(=O)N2CCCCCC2)c(C)n(C)c1C here?
Its Potency is inconclusive [inhibitor, single point].

Which Potency does the source give for CS(=O)(=O)c1ccc2nc(NC(=O)c3cc([N+](=O)[O-])cc([N+](=O)[O-])c3)sc2c1 here?
Its Potency is inconclusive [inhibitor, single point].

Which Potency does the source give for O=C(NCc1ccc(F)cc1)c1ccc(CSc2nc3ccncc3n2Cc2ccc(F)cc2)cc1 here?
The Potency was “inactive”.

Which Potency does the source give for CC(C(=O)NC(C)(C)C)n1c(-c2ccccc2)nc2ccccc21 (stereo unspecified) here?
The Potency was “inactive”.

For CC(=O)c1cccc(Nc2c3c(nc4ccccc24)CCC3)c1, which Potency is on record?
Its Potency is active: 2.06 µM.

Which Potency does the source give for CCCn1c(NC(=O)c2ccccc2Br)nc2ccccc21 here?
The Potency was active: 23.1 µM.

With COc1ccc2oc(=N)c(C(=O)Nc3ccc(C)cc3)cc2c1 as the compound, how does the Potency read?
The Potency was inconclusive [inhibitor, single point].

Which Potency does the source give for COc1cccc(-c2cccc(-c3nc(C(=O)NCc4ccc5c(c4)OCO5)cc4c3[C@H](CCO)N(S(=O)C(C)(C)C)C4)c2)c1 (stereo partly specified) here?
The Potency was inconclusive [inhibitor, single point].

Which Potency does the source give for O=C(Nc1cc2nn(-c3ccccc3)nc2cc1Cl)c1ccco1 here?
Its Potency is “inactive”.

For COc1ccc(C=O)cc1COc1ccccc1F, which Potency is on record?
Its Potency is inconclusive [inhibitor, single point].

Which Potency does the source give for Fc1ccc(-c2nc3c4ccccc4ccn3c2Cc2ccccc2)cc1 here?
The Potency was inconclusive [inhibitor, partial curve].

For Cc1cc(C)c(C)c(S(=O)(=O)N2CCC(C(=O)N3CCN(c4ccc(F)cc4)CC3)CC2)c1C, which Potency is on record?
The Potency was inconclusive [inhibitor, single point].

With O=C(COc1ncnc2ccccc12)c1ccc2c(c1)OCCO2 as the compound, how does the Potency read?
The Potency was inconclusive [inhibitor, single point].

With O=C(Nc1cc(S(=O)(=O)Nc2ccc(Cl)cc2)ccc1O)c1ccc(S(=O)(=O)N2CCCCCC2)cc1 as the compound, how does the Potency read?
The Potency was active: 20.6 µM.
